Experimental data from paper PMC5998080, “Structural and functional analysis of mRNA export regulation by the nuclear pore complex” (Nature Communications, 2018).
Where a chain is given by its changes, count along the chain named. Numbers in names are those of the source. These are yes or no findings as the source states them, for the method shown. Some results given as binding are weak or reduced against the parent protein; the word gives no strength. For some of these results: Where a sequence is shown, tags or fusion partners need not be part of it. Values belong to the binder of their own block, whether it stands above or below them.

Experiments:
[1] = target: T1, H. sapiens Gle1 C-terminal domain (Gle1^CTD, residues 382–698) (human) (UniProt Q53GS7); assay: crystal structure; H. sapiens Gle1^CTD•Nup42^GBM, co-expressed and co-purified; 2.8 Å; both purified
T1 sequence: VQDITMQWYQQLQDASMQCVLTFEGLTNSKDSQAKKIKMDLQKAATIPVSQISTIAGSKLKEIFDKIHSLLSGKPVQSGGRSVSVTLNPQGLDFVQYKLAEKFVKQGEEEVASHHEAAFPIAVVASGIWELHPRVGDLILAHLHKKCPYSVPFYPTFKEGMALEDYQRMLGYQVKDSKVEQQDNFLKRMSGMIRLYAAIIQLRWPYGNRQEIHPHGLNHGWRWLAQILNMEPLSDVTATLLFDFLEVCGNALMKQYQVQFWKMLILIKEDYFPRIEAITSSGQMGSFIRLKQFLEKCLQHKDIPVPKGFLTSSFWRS

[2] = target: T1, H. sapiens Gle1 C-terminal domain (Gle1^CTD, residues 382–698) (human); assay: crystal structure; H. sapiens Gle1^CTD•Nup42^GBM•DDX19^∆N53, reconstituted from equimolar purified Gle1^CTD•Nup42^GBM and DDX19^∆N53; with ADP 3.6 Å or AMP-PNP•Mg^2+ 3.4 Å; both purified
[3] = target: T2, S. cerevisiae Gle1^CTD, purified alone (from His6-scGle1^CTD) (S. cerevisiae) (UniProt Q12315); assay: SEC; S. cerevisiae Gle1^CTD with Nup42^GBM and its variants; Superdex 200 10/300 GL or Superdex 75 10/300 GL; 20 mM TRIS (pH 8.0), 100 mM NaCl, 5 mM DTT; both purified
T2 sequence: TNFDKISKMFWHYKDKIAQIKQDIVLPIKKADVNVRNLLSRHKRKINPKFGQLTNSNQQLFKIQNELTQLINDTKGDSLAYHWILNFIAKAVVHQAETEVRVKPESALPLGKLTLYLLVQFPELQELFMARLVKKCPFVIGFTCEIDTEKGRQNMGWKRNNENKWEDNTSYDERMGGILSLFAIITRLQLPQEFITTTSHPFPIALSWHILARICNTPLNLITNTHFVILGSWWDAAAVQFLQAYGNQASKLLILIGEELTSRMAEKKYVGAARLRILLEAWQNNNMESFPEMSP

[4] = target: T3, S. cerevisiae Gle1 C-terminal domain (Gle1^CTD), co-expressed with Nup42^GBM (S. cerevisiae) (UniProt Q12315); assay: crystal structure; S. cerevisiae Gle1^CTD•Nup42^GBM, co-expressed and co-purified; 1.75 Å; both purified
T3 sequence: T2 sequence

binding [1]: binds | binding [2]: binds
B1: H. sapiens Nup42 Gle1-binding motif (Nup42^GBM, residues 379–423) (domain or fragment, UniProt O15504 379-423)
chain: IIATDNVLFTPRDKLTVEELEQFQSKKFTLGKIPLKPPPLELLNV

binding [3]: binds
B2: S. cerevisiae Nup42^GBM F409D (domain or fragment, UniProt P49686 397-430)
chain: ELADLAEETLKIDRANKFELGLVPDIPPPPALVA

binding [3]: no binding
B3: S. cerevisiae Nup42^GBM F414D (domain or fragment, UniProt P49686 397-430)
chain: B2 chain with D13F, F18D

binding [4]: binds
B4: S. cerevisiae Nup42 Gle1-binding motif (Nup42^GBM), co-expressed with Gle1^CTD (domain or fragment, UniProt P49686 397-430)
chain: B2 chain with D13F

binding [3]: binds
B5: S. cerevisiae Nup42^GBM, purified alone (from His6-SUMO-scNup42^GBM-His6) (domain or fragment, UniProt P49686 397-430)
chain: B2 chain with D13F

binding [3]: no binding
B6: S. cerevisiae Nup42^GBM F409D/F414D (domain or fragment, UniProt P49686 397-430)
chain: B2 chain with F18D
